# Experimental data from the supplement of paper PMC8728848.
# The list shows a part of the results.
# B1: MVL (Microcystis viridis), Q9RHG4 (protein)
# chain: MASYKVNIPAGPLWSNAEAQQVGPKIAAAHQGNFTGQWTTVVESAMSVVEVELQVENTGIHEFKTDVLAGPLWSNDEAQKLGPQIAASYGAEFTGQWRTIVEGVMSVIQIKYTF
# What was measured:
# Experiment in all cases: glycan array binding signal (z-score within array); higher = stronger binding
# Details in all cases: glycan notation: IUPAC condensed, linker removed
# Fuc(a1-2)Gal = target: Fuc(a1-2)Gal
# How it was run: (§1)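 From the Consortium for Functional Glycomics database, 3228 arrays were curated, keeping only those whose protein sequence was available. Binding is given as a within-array Z-score averaged across arrays sharing a protein sequence and across linkers. Negative Z-scores can be read as non-binding.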
# Fuc(a1-2)Gal(b1-3)GalNAc = target: Fuc(a1-2)Gal(b1-3)GalNAc
# How it was run: as §1
# [1] = target: Fuc(a1-2)Gal(b1-3)GalNAc(b1-3)Gal
# How it was run: as §1
# [2] = target: Fuc(a1-2)Gal(b1-3)GalNAc(b1-3)Gal(a1-4)Gal(b1-4)Glc
# How it was run: as §1
# [3] = target: Fuc(a1-2)Gal(b1-3)GalNAc(b1-4)[Neu5Ac(a2-3)]Gal(b1-4)Glc
# How it was run: as §1
# Fuc(a1-2)Gal(b1-3)GlcNAc = target: Fuc(a1-2)Gal(b1-3)GlcNAc
# How it was run: as §1
# [4] = target: Fuc(a1-2)Gal(b1-3)GlcNAc(b1-2)Man(a1-3)[Fuc(a1-2)Gal(b1-3)GlcNAc(b1-2)Man(a1-6)]Man(b1-4)GlcNAc(b1-4)GlcNAc
# How it was run: as §1
# [5] = target: Fuc(a1-2)Gal(b1-3)GlcNAc(b1-3)Gal(b1-4)Glc
# How it was run: as §1
# [6] = target: Fuc(a1-2)Gal(b1-3)GlcNAc(b1-3)[Gal(b1-4)[Fuc(a1-3)]GlcNAc(b1-6)]Gal(b1-4)Glc
# How it was run: as §1
# [7] = target: Fuc(a1-2)Gal(b1-3)[Fuc(a1-4)]GlcNAc
# How it was run: as §1
# [8] = target: Fuc(a1-2)Gal(b1-3)[Fuc(a1-4)]GlcNAc(b1-2)Man(a1-3)[Fuc(a1-2)Gal(b1-3)[Fuc(a1-4)]GlcNAc(b1-2)Man(a1-6)]Man(b1-4)GlcNAc(b1-4)GlcNAc
# How it was run: as §1
# Fuc(a1-2)Gal(b1-4)Glc = target: Fuc(a1-2)Gal(b1-4)Glc
# How it was run: as §1
# Fuc(a1-2)Gal(b1-4)Glc6S = target: Fuc(a1-2)Gal(b1-4)Glc6S
# How it was run: as §1
# Fuc(a1-2)Gal(b1-4)GlcNAc = target: Fuc(a1-2)Gal(b1-4)GlcNAc
# How it was run: as §1
# [9] = target: Fuc(a1-2)Gal(b1-4)GlcNAc(b1-2)Man(a1-3)[Fuc(a1-2)Gal(b1-4)GlcNAc(b1-2)Man(a1-6)]Man(b1-4)GlcNAc(b1-4)GlcNAc
# How it was run: as §1
# [10] = target: Fuc(a1-2)Gal(b1-4)GlcNAc(b1-3)Gal(b1-4)GlcNAc
# How it was run: as §1
# [11] = target: Fuc(a1-2)Gal(b1-4)GlcNAc(b1-3)Gal(b1-4)GlcNAc(b1-3)Gal(b1-4)GlcNAc
# How it was run: as §1
# [12] = target: Fuc(a1-2)Gal(b1-4)GlcNAc6S
# How it was run: as §1
# [13] = target: Fuc(a1-2)Gal(b1-4)[Fuc(a1-3)]GlcNAc
# How it was run: as §1
# [14] = target: Fuc(a1-2)Gal(b1-4)[Fuc(a1-3)]GlcNAc(b1-2)Man(a1-3)[Fuc(a1-2)Gal(b1-4)[Fuc(a1-3)]GlcNAc(b1-2)Man(a1-6)]Man(b1-4)GlcNAc(b1-4)GlcNAc
# How it was run: as §1
# [15] = target: Fuc(a1-2)Gal(b1-4)[Fuc(a1-3)]GlcNAc(b1-3)Gal(b1-4)[Fuc(a1-3)]GlcNAc
# How it was run: as §1
# [16] = target: Fuc(a1-2)Gal(b1-4)[Fuc(a1-3)]GlcNAc(b1-3)Gal(b1-4)[Fuc(a1-3)]GlcNAc(b1-3)Gal(b1-4)[Fuc(a1-3)]GlcNAc
# How it was run: as §1
# Fuc(a1-2)Gal6S(b1-4)Glc = target: Fuc(a1-2)Gal6S(b1-4)Glc
# How it was run: as §1
# [17] = target: Fuc(a1-2)Gal6S(b1-4)Glc6S
# How it was run: as §1
# [18] = target: Fuc(a1-2)Gal6S(b1-4)GlcNAc
# How it was run: as §1
# Fuc(a1-2)GlcNAc = target: Fuc(a1-2)GlcNAc
# How it was run: as §1
# Fuc(a1-2)[Gal(a1-3)]Gal = target: Fuc(a1-2)[Gal(a1-3)]Gal
# How it was run: as §1
# [19] = target: Fuc(a1-2)[Gal(a1-3)]Gal(b1-3)GlcNAc
# How it was run: as §1
# [20] = target: Fuc(a1-2)[Gal(a1-3)]Gal(b1-3)GlcNAc(b1-2)Man(a1-3)[Fuc(a1-2)[Gal(a1-3)]Gal(b1-3)GlcNAc(b1-2)Man(a1-6)]Man(b1-4)GlcNAc(b1-4)GlcNAc
# How it was run: as §1
# [21] = target: Fuc(a1-2)[Gal(a1-3)]Gal(b1-4)Glc
# How it was run: as §1
# [22] = target: Fuc(a1-2)[Gal(a1-3)]Gal(b1-4)GlcNAc
# How it was run: as §1
# [23] = target: Fuc(a1-2)[Gal(a1-3)]Gal(b1-4)GlcNAc(b1-2)Man(a1-3)[Fuc(a1-2)[Gal(a1-3)]Gal(b1-4)GlcNAc(b1-2)Man(a1-6)]Man(b1-4)GlcNAc(b1-4)GlcNAc
# How it was run: as §1
# [24] = target: Fuc(a1-2)[Gal(a1-3)]Gal(b1-4)[Fuc(a1-3)]GlcNAc
# How it was run: as §1
# [25] = target: Fuc(a1-2)[Gal(a1-4)]Gal(b1-4)GlcNAc
# How it was run: as §1
# [26] = target: Fuc(a1-2)[GalNAc(a1-3)]Gal
# How it was run: as §1
# [27] = target: Fuc(a1-2)[GalNAc(a1-3)]Gal(b1-3)GlcNAc
# How it was run: as §1
# [28] = target: Fuc(a1-2)[GalNAc(a1-3)]Gal(b1-3)GlcNAc(b1-2)Man(a1-3)[Fuc(a1-2)[GalNAc(a1-3)]Gal(b1-3)GlcNAc(b1-2)Man(a1-6)]Man(b1-4)GlcNAc(b1-4)GlcNAc
# How it was run: as §1
# [29] = target: Fuc(a1-2)[GalNAc(a1-3)]Gal(b1-4)Glc
# How it was run: as §1
# [30] = target: Fuc(a1-2)[GalNAc(a1-3)]Gal(b1-4)GlcNAc
# How it was run: as §1
# [31] = target: Fuc(a1-2)[GalNAc(a1-3)]Gal(b1-4)GlcNAc(b1-2)Man(a1-3)[GalNAc(a1-3)[Fuc(a1-2)]Gal(b1-4)GlcNAc(b1-2)Man(a1-6)]Man(b1-4)GlcNAc(b1-4)GlcNAc
# How it was run: as §1
# [32] = target: Fuc(a1-2)[GalNAc(a1-3)]Gal(b1-4)GlcNAc(b1-3)Gal(b1-4)GlcNAc
# How it was run: as §1
# [33] = target: Fuc(a1-2)[GalNAc(a1-3)]Gal(b1-4)GlcNAc(b1-3)Gal(b1-4)GlcNAc(b1-3)Gal(b1-4)GlcNAc
# How it was run: as §1
# [34] = target: Fuc(a1-2)[GalNAc(a1-3)]Gal(b1-4)[Fuc(a1-3)]GlcNAc
# How it was run: as §1
# [35] = target: Fuc(a1-2)[GalNAc(a1-4)]Gal(b1-4)GlcNAc
# How it was run: as §1
# [36] = target: Fuc(a1-2)[GalNAc(b1-3)]Gal
# How it was run: as §1
binder,measurement,setting,value
B1,glycan array binding signal (z-score),Fuc(a1-2)Gal,-0.235
same,glycan array binding signal (z-score),Fuc(a1-2)Gal(b1-3)GalNAc,-0.102
same,glycan array binding signal (z-score),[1],-0.113
same,glycan array binding signal (z-score),[2],-0.236
same,glycan array binding signal (z-score),[3],-0.23
same,glycan array binding signal (z-score),Fuc(a1-2)Gal(b1-3)GlcNAc,-0.222
same,glycan array binding signal (z-score),[4],0.909
same,glycan array binding signal (z-score),[5],-0.237
same,glycan array binding signal (z-score),[6],-0.217
same,glycan array binding signal (z-score),[7],-0.242
same,glycan array binding signal (z-score),[8],0.019
same,glycan array binding signal (z-score),Fuc(a1-2)Gal(b1-4)Glc,-0.242
same,glycan array binding signal (z-score),Fuc(a1-2)Gal(b1-4)Glc6S,-0.234
same,glycan array binding signal (z-score),Fuc(a1-2)Gal(b1-4)GlcNAc,-0.233
same,glycan array binding signal (z-score),[9],0.923
same,glycan array binding signal (z-score),[10],-0.223
same,glycan array binding signal (z-score),[11],-0.199
same,glycan array binding signal (z-score),[12],-0.25
same,glycan array binding signal (z-score),[13],-0.236
same,glycan array binding signal (z-score),[14],-0.093
same,glycan array binding signal (z-score),[15],-0.238
same,glycan array binding signal (z-score),[16],-0.157
same,glycan array binding signal (z-score),Fuc(a1-2)Gal6S(b1-4)Glc,-0.227
same,glycan array binding signal (z-score),[17],-0.183
same,glycan array binding signal (z-score),[18],-0.24
same,glycan array binding signal (z-score),Fuc(a1-2)GlcNAc,-0.244
same,glycan array binding signal (z-score),Fuc(a1-2)[Gal(a1-3)]Gal,-0.238
same,glycan array binding signal (z-score),[19],-0.209
same,glycan array binding signal (z-score),[20],0.752
same,glycan array binding signal (z-score),[21],-0.229
same,glycan array binding signal (z-score),[22],-0.243
same,glycan array binding signal (z-score),[23],1.59
same,glycan array binding signal (z-score),[24],-0.195
same,glycan array binding signal (z-score),[25],-0.246
same,glycan array binding signal (z-score),[26],-0.22
same,glycan array binding signal (z-score),[27],-0.204
same,glycan array binding signal (z-score),[28],0.451
same,glycan array binding signal (z-score),[29],-0.201
same,glycan array binding signal (z-score),[30],-0.246
same,glycan array binding signal (z-score),[31],1.72
same,glycan array binding signal (z-score),[32],-0.242
same,glycan array binding signal (z-score),[33],-0.202
same,glycan array binding signal (z-score),[34],-0.201
same,glycan array binding signal (z-score),[35],-0.231
same,glycan array binding signal (z-score),[36],-0.241
